From the supplement of paper PMC5499739
The full ranking holds about 16,000 sequences; the median of “Z-score” is about -0.37, and the highest 2% start at about 3.1. This is one part of the list.

Tested on: RBM10 RRM1-ZnF-RRM2 (GST-tagged construct)
Assay: RNAcompete 7-mer binding Z-score; higher = stronger binding preference
Summary of the method: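 GST-tagged RBM10 constructs (20 pmol) and a designed pool of 241 399 RNAs up to 41 nt (1.5 nmol) were allowed to bind for 30 min at 4°C in 1 ml Hepes pH 7.8 buffer with glutathione Sepharose beads. After four 2-min washes at 4°C, bound RNA was identified by microarray hybridisation. Enrichment was scored per heptamer motif as a one-sided Z-score across the probes containing it.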

Sequence	RNAcompete 7-mer binding Z-score
CCACGCC	-0.679
GGCAGCG	1.49
CCGUCAC	-0.657
CGCCCGC	-0.785
GAGCCUG	-0.719
UGCAUCU	-0.766
GUUCAAC	-0.38
GCCGAUA	-0.417
GUCCCCG	-0.307
ACGUUAA	-0.369
UACCGCG	-0.22
UAUACCU	-0.792
GCCCGGA	-0.337
CGCUAAG	-0.457
GGUGCUA	0.88
GUUUACG	-0.169
AUAUGAU	-0.205
GAAUAGU	0.217
CCAACCA	-0.668
ACGCUGC	-0.464
GGUGGUG	3.25
CUGCUCU	-0.923
UCCUAUA	-0.668
CCAUUGC	-0.704
UGUCGCA	-0.679

Sequence	RNAcompete 7-mer binding Z-score
ACUGGAG	1.21
CUACGAG	-0.475
UUUCGGU	-0.253
GUUCUCA	-0.522
CUCAUCA	-0.715
UAUUAAU	-0.635
AGGAACG	1.46
UAGAUUA	-0.333
GUUUGUC	-0.344
UCGAUUA	-0.573
GACUGUU	-0.843
CCCCGAG	-0.224
CACGGUG	0.508
GUUGAGC	0.676
UUGGUAG	1.46
GUCAUCC	-0.592
CGGCCCC	-0.635
CGCAUGG	0.399
GAUCGAG	0.65
GAUUUGA	-0.00877
CAUAACA	-0.311
AAACGCG	0.0786
GGUAGGU	2.96
ACUUGAU	-0.781
CCGGAUC	-0.391

Sequence	RNAcompete 7-mer binding Z-score
GUCGUGU	0.119
CAUUGAU	-0.5
CGUCCAU	-0.606
AACAAGA	0.341
ACCACUA	-0.708
AGGCAAC	0.13
CAGCUAC	-0.573
CCCUGGU	-0.646
UGAGCUA	0.075
UAAUCAG	0.0641
CGAGAGG	1.46
GUAUACU	-0.468
GCUUGGU	-0.253
UCUAGCC	-0.857
GUACAAU	0.0896
UAGAACG	0.312
CGCAUGC	-0.475
AACGGAG	2.34
CAAGAGG	1.27
GUGAGUC	0.636
CCAUACC	-0.533
CUUUGAC	-0.912
AUGAUUC	-0.606
ACACAGU	-0.238
AAAACAA	0.243

Sequence	RNAcompete 7-mer binding Z-score
UGAAACA	-0.271
UAGCUGA	-0.224
CCGGCAA	-0.526
AUAAACC	-0.409
AUGCCCA	-0.828
GGCUAUA	0.0167
GGGGACU	1.3
CGUGCCA	-0.475
UCCACCA	-0.737
GUCCUUG	-0.584
CUACAAG	-0.413
AGACCAU	-0.952
AACAGGC	1.62
GCGGGAC	1.8
CAGCCUU	-0.781
AUACCCU	-0.799
CGUCGCC	-0.741
AAUCAGU	0.221
CGUUGCA	-0.643
AUAGAGU	0.468
AAUUUGG	0.687
AUAGGAU	1.55
AGUUUUC	-0.526
ACCGGAA	0.17
UUCCGCU	-0.708

Sequence	RNAcompete 7-mer binding Z-score
ACCUGCA	-0.799
GAACCAU	-0.5
UCUACCG	-0.715
UGUACCA	-0.446
UGGACAA	1.2
GACACUU	-0.908
AUGGAUA	2.5
GUCAAAG	0.41
GGGGGAA	2.61
CUGACUC	-0.701
AUGUUCU	-0.77
UUUUCAA	-0.581
ACGGCGG	1.11
CACUGUC	-0.788
ACUGCCC	-0.439
CACGCGA	-0.486
GCAACUU	-0.486
GGUCUCG	0.0677
UGGAUAA	1.07
GCGGGGA	3.23
ACAAGCG	0.366
GCACGUC	-0.326
CCAUUUG	-0.963
CCGGGCA	0.0349
AUGACCA	-0.337

Sequence	RNAcompete 7-mer binding Z-score
UGGUUCG	0.326
AUUGAGA	0.283
AAUCACA	-0.453
CACAGUG	0.21
UAGCUGU	-0.726
GUGUUUG	0.221
UGCUCCU	-0.923
CUGAGAU	-0.42
AACUUGG	0.0422
CGCCUCA	-0.748
GCAACUA	-0.296
ACGUUUC	-0.912
CGCGUCA	-0.304
CUUACAG	-0.595
UUACAGG	0.574
AGCCAAG	0.0386
UCUUGAC	-0.908
UGAACCC	-0.592
AUUCUGU	-0.737
UUACAUG	-0.337
UACAAGG	1.26
GCAAUCU	-0.643
CACGGAC	0.0932
UCGUGCU	-0.577
AGGGGGU	3.03

Sequence	RNAcompete 7-mer binding Z-score
GUGAUCC	-0.278
UAGUUGC	-0.344
CUGAUGC	-0.639
CCCUGAG	-0.602
AGCUGGG	2.13
GUAAAAA	0.253
GUACAUG	0.742
AACAUGU	-0.267
AGCUAUG	-0.205
CUAACUG	-0.61
ACCUAUG	-0.81
CGAAGCC	-0.449
GCAGCUU	-0.595
CCUAUCA	-0.883
GAGGCUU	-0.42
GGCAAUG	1.76
CGAACUU	-0.752
CAGCUUG	-0.621
CGGUGAG	1.64
AGCUAGC	-0.592
GAAUCAG	0.811
GCCCUCG	-0.774
ACUAAUC	-0.69
UUCACCG	-0.701
CGAAGCU	-0.606

Sequence	RNAcompete 7-mer binding Z-score
UCCAUCG	-0.628
UACCCUC	-0.763
GCAGUGG	2.37
GGUACUG	0.894
GACAACA	-0.0998
UUUGAUA	-0.726
AUAUUUA	-0.61
UCACCCC	-0.555
GCCGCAC	-0.661
GUAGGUC	1.22
GCAAACC	-0.442
CGAGAUA	-0.114
GAAUCGU	-0.337
AUCGCGA	-0.286
AGUCGUU	-0.0161
GGACUGU	0.239
ACGUUAG	-0.22
UGUGCCA	-0.511
AUCCUCA	-0.774
CUACACU	-0.617
GUGUUUU	-0.0197
CCUGCCA	-0.978
UCCUUAU	-0.85
GACUGUG	-0.198
UGCAAAA	-0.198

Sequence	RNAcompete 7-mer binding Z-score
UGAAUCA	-0.0925
CCCCUUA	-0.715
AGUAAGU	0.188
ACCGUGG	0.694
UCCCCGU	-0.577
AGAAUGG	3.51
UAAAGCA	-0.0197
AAACUUU	-0.752
UCAAGGG	1.24
UGAGUCA	-0.0306
AUGGAUU	1.32
CCUUCUA	-0.879
GCUGGUG	0.767
UACAUUG	-0.38
UACUUAA	-0.606
AUAAAAA	-0.384
GUUCGUC	-0.0415
AAUGACU	-0.395
UUGCAGA	-0.0306
UAUGUAC	-0.238
AAACCGC	-0.628
CCCCCGG	-0.231
CGCGAAU	-0.57
UUUUGCA	-0.632
GUUGCUC	-0.661

Sequence	RNAcompete 7-mer binding Z-score
GCUGAAG	0.457
CAGCCUA	-0.814
CCCUUCG	-0.792
GUGCGGG	2.74
UCGAGGU	1.02
UUAACCC	-0.825
GCGAUAC	-0.129
AGAUUUG	0.312
UCAAUUU	-0.948
CCUGAAC	-0.806
UCAACUG	-0.511
UCCGCAG	-0.508
UGCGGGG	2.87
UGAAAGA	0.355
GUUCGGA	0.115
CUUGAAG	-0.457
AUUUACG	-0.551
CUCUUAU	-0.908
CCAUAGG	0.0641
CCCAUGG	0.0932
UAGCCCC	-0.544
UAGCAUA	-0.5
AACUAGG	0.479
AGGCGUA	0.716
CGUGACA	-0.246

Sequence	RNAcompete 7-mer binding Z-score
UUGCCUU	-0.956
AAGCGGA	2.01
AAAUAAA	-0.479
GAGUUGU	0.0568
ACACUGU	-0.519
GUUGCGG	1.04
GCUGUUA	-0.766
CCGCGCG	-0.304
UAACCCA	-0.337
UAGCGGC	0.239
UUAACCA	-0.424
CAUCGAA	-0.588
ACAUUUG	-0.668
GGAAUCA	1.04
UCCUCAU	-0.785
UCAUGGG	1.19
CUGUAAG	-0.377
GGACCUU	-0.541
CAGAUUU	-0.788
ACGUCGA	-0.191
CGAGAUU	-0.318
UGGAUCC	0.111
AUAGUAA	0.0532
CUAGGCC	-0.69
GCCCGCC	-0.599

Sequence	RNAcompete 7-mer binding Z-score
CAGUUCC	-0.723
AUUGCGU	-0.296
GGGCAAG	2.34
AAUCGAG	0.184
CCCUAGU	-0.726
GCGGCGA	1.41
CACAGAU	-0.311
UGGUUGG	2.15
ACGGGUU	2.32
GAGAAGG	4.54
UGCUUCG	-0.624
CACACCG	-0.384
UUGACAC	-0.409
AGUGCUC	-0.508
UGGUUAA	1.53
UCGACUU	-0.803
CUUAACU	-0.832
UUAUGCA	-0.413
AGAGAAU	0.345
CAGACAU	-0.377
GAUAGUA	0.261
CGAAUGC	-0.511
CUCUCAU	-0.785
GCACUUU	-0.821
AUUACCU	-0.741

Sequence	RNAcompete 7-mer binding Z-score
CUCCCGG	-0.267
CAGGAAC	0.905
UUUCCCU	-0.894
GAACCGU	-0.588
GUUCUUU	-0.679
CUUUCUU	-0.854
UGUAAAG	0.257
AAUAAAG	-0.067
AGACCCG	-1.15
UUUGUCG	-0.577
AACUUCU	-0.759
GUAUUCG	-0.347
AACACCU	-0.785
ACUGCUG	-0.701
AGGAUAU	1.04
GAUUACU	-0.551
AGGGUGC	2.43
GCUGCUU	-0.439
GGUUAUU	0.891
CAUCUCC	-0.795
GAGUAUA	0.556
CUUAAAC	-0.646
GCUCCCU	-0.61
UUUAACU	-0.734
AUCGUGA	-0.253

Sequence	RNAcompete 7-mer binding Z-score
CGGCCAG	0.141
GGACCGG	1.52
UUUAUAA	-0.686
AGCGUUU	-0.384
UUGCAUG	-0.3
GGAGGAA	3.08
AUCAGGU	1.17
ACUCGGG	0.618
UCCAUGU	-0.544
GUCAGUG	0.607
AUUUUCU	-0.803
UGUAAUG	-0.191
GCUCGUC	-0.409
UUCCUUG	-0.719
UGACAGC	-0.227
AAGAGAG	1.28
CGUGUGU	-0.151
CGACCCG	-0.646
CCGCUUC	-0.916
GUUGGAG	2.19
CACACUU	-0.938
GGCUUGC	-0.391
CACGUCA	-0.435
GGAGCUU	0.374
UACAAUA	-0.202

Sequence	RNAcompete 7-mer binding Z-score
ACUGGCG	-0.22
UACACGA	-0.0998
AAUGGCG	2.02
GCUAGUA	-0.256
GUAUAAU	0.101
CCAGGUG	1.04
AACGGCU	-0.0343
CAUAUAG	-0.184
AGUAUAA	-0.00512
CGAGGGG	3.29
AAGUGGG	3.5
AAGGUUC	1.02
CUGUGCG	-0.242
GUAAAUA	0.141
AUCACUG	-0.475
CGCCCCA	-0.77
ACUGAAG	0.337
